Test results as given in the supplement of paper PMC8728848.
Some of the results follow.

Tests used:
Test in all cases: glycan array binding signal (z-score within array); higher = stronger binding
Details in all cases: glycan notation: IUPAC condensed, linker removed
[1] = target: Fuc(a1-2)Gal(b1-4)GlcNAc(b1-3)Gal(b1-4)GlcNAc(b1-2)Man(a1-3)[Fuc(a1-2)Gal(b1-4)GlcNAc(b1-3)Gal(b1-4)GlcNAc(b1-2)Man(a1-6)]Man(b1-4)GlcNAc(b1-4)GlcNAc
Outline: (§1)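 Negative Z-scores can be read as non-binding. The Z-score is calculated within each array and then averaged across arrays of one protein sequence at different concentrations or buffers and across linkers. Arrays, 3228 in all, were curated from the Consortium for Functional Glycomics database and kept only where the protein sequence was available.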

[2] = target: Fuc(a1-2)Gal(b1-4)GlcNAc(b1-3)Gal(b1-4)GlcNAc(b1-3)Gal(b1-4)GlcNAc
Outline: as §1

[3] = target: Fuc(a1-2)Gal(b1-4)GlcNAc(b1-3)GalNAc
Outline: as §1

[4] = target: Fuc(a1-2)Gal(b1-4)GlcNAc(b1-3)[Fuc(a1-2)Gal(b1-4)GlcNAc(b1-6)]GalNAc
Outline: as §1

[5] = target: Fuc(a1-2)Gal(b1-4)GlcNAc(b1-3)[Fuc(a1-3)[Gal(b1-4)]GlcNAc(b1-6)]Gal(b1-4)Glc
Outline: as §1

[6] = target: Fuc(a1-2)Gal(b1-4)GlcNAc(b1-6)GalNAc
Outline: as §1

[7] = target: Fuc(a1-2)Gal(b1-4)GlcNAc6S
Outline: as §1

[8] = target: Fuc(a1-2)Gal(b1-4)[Fuc(a1-3)]GlcNAc
Outline: as §1

[9] = target: Fuc(a1-2)Gal(b1-4)[Fuc(a1-3)]GlcNAc(b1-2)Man(a1-3)[Fuc(a1-2)Gal(b1-4)[Fuc(a1-3)]GlcNAc(b1-2)Man(a1-6)]Man(b1-4)GlcNAc(b1-4)[Fuc(a1-6)]GlcNAc
Outline: as §1

[10] = target: Fuc(a1-2)Gal(b1-4)[Fuc(a1-3)]GlcNAc(b1-2)[Fuc(a1-2)Gal(b1-4)[Fuc(a1-3)]GlcNAc(b1-4)]Man(a1-3)[Fuc(a1-2)Gal(b1-4)[Fuc(a1-3)]GlcNAc(b1-2)Man(a1-6)]Man(b1-4)GlcNAc(b1-4)GlcNAc
Outline: as §1

[11] = target: Fuc(a1-2)Gal(b1-4)[Fuc(a1-3)]GlcNAc(b1-3)Gal(b1-4)[Fuc(a1-3)]GlcNAc
Outline: as §1

[12] = target: Fuc(a1-2)Gal(b1-4)[Fuc(a1-3)]GlcNAc(b1-3)Gal(b1-4)[Fuc(a1-3)]GlcNAc(b1-3)Gal(b1-4)[Fuc(a1-3)]GlcNAc
Outline: as §1

[13] = target: Fuc(a1-2)Gal(b1-4)[Fuc(a1-3)]GlcNAc(b1-3)GalNAc
Outline: as §1

[14] = target: Fuc(a1-2)Gal(b1-4)[Fuc(a1-3)]GlcNAc(b1-3)[Neu5Ac(a2-6)Gal(b1-4)GlcNAc(b1-6)]Gal(b1-4)Glc
Outline: as §1

[15] = target: Fuc(a1-2)Gal3S(b1-4)GlcNAc
Outline: as §1

[16] = target: Fuc(a1-2)Gal6S(b1-3)GlcNAc
Outline: as §1

[17] = target: Fuc(a1-2)Gal6S(b1-3)GlcNAc6S
Outline: as §1

Fuc(a1-2)Gal6S(b1-4)Glc = target: Fuc(a1-2)Gal6S(b1-4)Glc
Outline: as §1

[18] = target: Fuc(a1-2)Gal6S(b1-4)Glc6S
Outline: as §1

Fuc(a1-2)GlcNAc = target: Fuc(a1-2)GlcNAc
Outline: as §1

Fuc(a1-2)[Gal(a1-3)]Gal = target: Fuc(a1-2)[Gal(a1-3)]Gal
Outline: as §1

[19] = target: Fuc(a1-2)[Gal(a1-3)]Gal(b1-3)GalNAc
Outline: as §1

[20] = target: Fuc(a1-2)[Gal(a1-3)]Gal(b1-3)GalNAc(b1-3)Gal(a1-4)Gal(b1-4)Glc
Outline: as §1

[21] = target: Fuc(a1-2)[Gal(a1-3)]Gal(b1-3)GlcNAc
Outline: as §1

[22] = target: Fuc(a1-2)[Gal(a1-3)]Gal(b1-3)GlcNAc(b1-2)Man(a1-3)[Fuc(a1-2)[Gal(a1-3)]Gal(b1-3)GlcNAc(b1-2)Man(a1-6)]Man(b1-4)GlcNAc(b1-4)GlcNAc
Outline: as §1

[23] = target: Fuc(a1-2)[Gal(a1-3)]Gal(b1-3)GlcNAc(b1-2)Man(a1-3)[Fuc(a1-2)[Gal(a1-3)]Gal(b1-3)GlcNAc(b1-2)Man(a1-6)]Man(b1-4)GlcNAc(b1-4)[Fuc(a1-6)]GlcNAc
Outline: as §1

[24] = target: Fuc(a1-2)[Gal(a1-3)]Gal(b1-3)GlcNAc(b1-3)GalNAc
Outline: as §1

[25] = target: Fuc(a1-2)[Gal(a1-3)]Gal(b1-3)GlcNAc(b1-6)GalNAc
Outline: as §1

[26] = target: Fuc(a1-2)[Gal(a1-3)]Gal(b1-4)Glc
Outline: as §1

[27] = target: Fuc(a1-2)[Gal(a1-3)]Gal(b1-4)GlcNAc
Outline: as §1

B1: LCA (Lens culinaris), P02870 (protein)
chain: MASLQTQMISFYLIFLSILLTTIFFFKVNSTETTSFSITKFSPDQKNLIFQGDGYTTKGKLTLTKAVKSTVGRALYSTPIHIWDRDTGNVANFVTSFTFVIDAPSSYNVADEFTFFIAPVDTKPQTGGGYLGVFNSKEYDKTSQTVAVEFDTFYNAAWDPSNKERHIGIDVNSIKSVNTKSWNLQNGERANVVIAFNAATNVLTVTLTYPNSLEEENVTSYTLNEVVPLKDVVPEWVRIGFSATTGAEFAAHEVHSWSFHSELGGTSSSKQAADA
**Q.** Which “glycan array binding signal (z-score)” value [1] does the source give for B1 here?
**A.** -0.154

**Q.** What about the “glycan array binding signal (z-score)” value [2] of the same binder?
**A.** -0.167

**Q.** What about the “glycan array binding signal (z-score)” value [3] of the same binder?
**A.** -0.182

**Q.** And the “glycan array binding signal (z-score)” value [4]?
**A.** -0.213

**Q.** And the “glycan array binding signal (z-score)” value [5]?
**A.** -0.193

**Q.** What about the “glycan array binding signal (z-score)” value [6] of the same binder?
**A.** -0.218

**Q.** What about the “glycan array binding signal (z-score)” value [7] of the same binder?
**A.** -0.226

**Q.** What about the “glycan array binding signal (z-score)” value [8] of the same binder?
**A.** -0.223

**Q.** And the “glycan array binding signal (z-score)” value [9]?
**A.** 0.52

**Q.** What about the “glycan array binding signal (z-score)” value [10] of the same binder?
**A.** -0.194

**Q.** What about the “glycan array binding signal (z-score)” value [11] of the same binder?
**A.** -0.217

**Q.** And the “glycan array binding signal (z-score)” value [12]?
**A.** -0.215

**Q.** And the “glycan array binding signal (z-score)” value [13]?
**A.** -0.136

**Q.** And the “glycan array binding signal (z-score)” value [14]?
**A.** -0.211

**Q.** And the “glycan array binding signal (z-score)” value [15]?
**A.** -0.233

**Q.** What about the “glycan array binding signal (z-score)” value [16] of the same binder?
**A.** -0.249

**Q.** What about the “glycan array binding signal (z-score)” value [17] of the same binder?
**A.** -0.223

**Q.** And the “glycan array binding signal (z-score)” value (Fuc(a1-2)Gal6S(b1-4)Glc)?
**A.** -0.196

**Q.** What about the “glycan array binding signal (z-score)” value [18] of the same binder?
**A.** -0.212

**Q.** What about the “glycan array binding signal (z-score)” value (Fuc(a1-2)GlcNAc) of the same binder?
**A.** -0.239

**Q.** And the “glycan array binding signal (z-score)” value (Fuc(a1-2)[Gal(a1-3)]Gal)?
**A.** -0.135

**Q.** And the “glycan array binding signal (z-score)” value [19]?
**A.** -0.199

**Q.** And the “glycan array binding signal (z-score)” value [20]?
**A.** -0.235

**Q.** And the “glycan array binding signal (z-score)” value [21]?
**A.** -0.089

**Q.** What about the “glycan array binding signal (z-score)” value [22] of the same binder?
**A.** -0.228

**Q.** What about the “glycan array binding signal (z-score)” value [23] of the same binder?
**A.** 0.373

**Q.** And the “glycan array binding signal (z-score)” value [24]?
**A.** -0.238

**Q.** What about the “glycan array binding signal (z-score)” value [25] of the same binder?
**A.** -0.194

**Q.** What about the “glycan array binding signal (z-score)” value [26] of the same binder?
**A.** -0.182

**Q.** What about the “glycan array binding signal (z-score)” value [27] of the same binder?
**A.** -0.215
